According to the supplement of paper PMC3694890:
± gives the uncertainty stated by the source. This is one part of the list. A small y stands for phosphotyrosine.

target: GRB2 (endogenous complexes from cell lysate), P62993; experiment: GRB2 complex binding differential signal (pY peptide minus Ala control peptide) (fluorescence intensity units); higher = stronger GRB2 complex binding; conditions: MCF7
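Further: phosphopeptide probes on the chip at 1–4 µM, lysate proteins bound in 20 mM Tris pH 7.0 buffer with 140 mM NaCl, 1% Triton X-100 and 5% glycerol.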

Binder | GRB2 complex binding differential signal
yIVTEY [SRC_338/A1] | 127 ± 180
yGRFTI [SRC_439/A1] | 202 ± 280
yFTSTE [SRC_522/A1] | 417 ± 190
yQPGEN [SRC_530/A1] | 1030 ± 520
yDYESR [SRC_93/A1] | 282 ± 280
ySPSSS [SRMS_380/A1] | -1410 ± 880
yESFLE [STAP2_22/A1] | 342 ± 300
yEKVLG [STAP2_250/A1] | 2050 ± 690
yDVPRE [BCAR1_387/A1] | 3090 ± 930
yVTPIG [STAP2_310/A1] | 11000 ± 3900
yENQDV [STAP2_322/A1] | 44400 ± 10000
yIKTEL [STAT1_701/A1] | 754 ± 590
yLKHRL [STAT2_690/A1] | 91.3 ± 300
yLKTKF [STAT3_705/A1] | 376 ± 250
yVPSVF [STAT4_693/A1] | -1060 ± 730
yVKPQI [STAT5A_694/A1] | 17400 ± 3800

same assay, conditions: MCF10A

Binder | GRB2 complex binding differential signal
yIVTEY [SRC_338/A1] | 126 ± 490
yGRFTI [SRC_439/A1] | 25.2 ± 190
yFTSTE [SRC_522/A1] | 725 ± 180
yQPGEN [SRC_530/A1] | 857 ± 730
yDYESR [SRC_93/A1] | -115 ± 220
ySPSSS [SRMS_380/A1] | 2270 ± 1100
yESFLE [STAP2_22/A1] | 476 ± 210
yEKVLG [STAP2_250/A1] | 2730 ± 410
yDVPRE [BCAR1_387/A1] | 1270 ± 390
yVTPIG [STAP2_310/A1] | 8280 ± 1900
yENQDV [STAP2_322/A1] | 8590 ± 3600
yIKTEL [STAT1_701/A1] | 1210 ± 250
yLKHRL [STAT2_690/A1] | 319 ± 270
yLKTKF [STAT3_705/A1] | 125 ± 110
yVPSVF [STAT4_693/A1] | 203 ± 180
yVKPQI [STAT5A_694/A1] | 14300 ± 1500

same assay, conditions: MDA-MB-231

Binder | GRB2 complex binding differential signal
yIVTEY [SRC_338/A1] | 376 ± 290
yGRFTI [SRC_439/A1] | 435 ± 370
yFTSTE [SRC_522/A1] | 1120 ± 380
yQPGEN [SRC_530/A1] | 546 ± 610
yDYESR [SRC_93/A1] | 402 ± 310
ySPSSS [SRMS_380/A1] | 579 ± 470
yESFLE [STAP2_22/A1] | 703 ± 240
yEKVLG [STAP2_250/A1] | 1100 ± 520
yDVPRE [BCAR1_387/A1] | 943 ± 340
yVTPIG [STAP2_310/A1] | 3250 ± 400
yENQDV [STAP2_322/A1] | 20600 ± 1100
yIKTEL [STAT1_701/A1] | 693 ± 400
yLKHRL [STAT2_690/A1] | 307 ± 270
yLKTKF [STAT3_705/A1] | 571 ± 360
yVPSVF [STAT4_693/A1] | 1050 ± 480
yVKPQI [STAT5A_694/A1] | 3000 ± 660

same assay, conditions: T47D

Binder | GRB2 complex binding differential signal
yIVTEY [SRC_338/A1] | 590 ± 1200
yGRFTI [SRC_439/A1] | 562 ± 1200
yFTSTE [SRC_522/A1] | 1110 ± 1100
yQPGEN [SRC_530/A1] | 394 ± 1100
yDYESR [SRC_93/A1] | 517 ± 1000
ySPSSS [SRMS_380/A1] | 960 ± 1200
yESFLE [STAP2_22/A1] | 533 ± 1100
yEKVLG [STAP2_250/A1] | 1690 ± 980
yDVPRE [BCAR1_387/A1] | 334 ± 860
yVTPIG [STAP2_310/A1] | 4510 ± 1200
yENQDV [STAP2_322/A1] | 16100 ± 9900
yIKTEL [STAT1_701/A1] | 495 ± 1300
yLKHRL [STAT2_690/A1] | 912 ± 990
yLKTKF [STAT3_705/A1] | 954 ± 900
yVPSVF [STAT4_693/A1] | 2350 ± 1400
yVKPQI [STAT5A_694/A1] | 3250 ± 1500
